Test results reported in patent publication US11266710B2, “Angio-3 for treatment of retinal angiogenic diseases” (SINGAPORE HEALTH SERVICES PTE LTD, priority 2017, dated 2022).
Read-outs that look alike come from different tables or passages of the source. Where no end group is shown, it is not given here.

Tested on: NHP laser induced choroidal neovascularization model
Settings: monkeys; for tolerability / intraocular inflammation: single IVT dose 2 mg in 50 μl
Experimental: This Pilot efficacy study was conducted on NHP laser induced choroidal neovascularization (“CNV”) model. Four monkeys were used for this pilot study and each animal was undergone eye examination procedures. Animals were sedated with ketamine intramuscularly (10-20 mg/kg) and Medetomidine (0.02 mg/kg; IM). Topical anaesthesia (1-2 drops of 1% xylocaine) was applied to reduce the discomfort of the eyes. Pupils of non-human primates were dilated with 2.5% phenylephrine hydrochloride and 1% tropicamide drops for the ocular imaging procedures.
Laser photocoagulation was performed on both eyes of the animals to create a model for CNV as previously described (Lai C M et al., 2005). Briefly, nine laser burns was delivered around the macula of each eye in the manner of a grid with a protocol of 500-800 mW power intensity, 50-micron spot size, and 0.1-s duration. The distance from each laser spot to the central fovea was maintained at 0.5 to 1 disc diameter size. Care was taken to avoid damaging the fovea.
After the animal being anesthetized, the eyes were locally anesthetized by putting a drop of xylocaine in the conjunctival sac. A 5% povidone iodine solution was placed in the conjunctival sac. A self-retaining eyelid speculum was placed in the eye. Caliper was used to measure and mark a location at 2 mm behind the limbus. Forceps was also be used to stabilize the eye and the intravitreal injection was performed using a 30-gauge needle. The tested compounds (2 mg in 50 μl) were administered single IVT injection into both eyes on day 15 (14 days after laser injury). Daily cage-side observations were performed on all animals to monitor for clinical signs of poor health, including any ocular abnormalities.
Fundus photography was carried out on both eyes at pre-laser and day 14 post-laser and day 29 post laser (2 weeks after treatment). For photography the pupils were dilated as mentioned above and imaged with a fundus camera (TopCon Corp., Tokyo, Japan). The fundus photographs were used to detect any changes in the retina such as inflammation and pigmentation.
FFA was performed on both eyes by intravenous injection of 10% sodium fluorescein dye (0. ml/kg body wt). The fundus images were taken between 10 s and 15 min after dye injection. FFA images were assessed and graded according to standardized system: • Grade 1—No hyperfluorescence—No leak • Grade 2—Hyperfluorescence—No leak • Grade 3—Hyperfluorescence—Late leak • Grade 4—Bright Hyperfluorescence with Late Leak Beyond Spot Optical Coherence Tomography (OCT):
OCT was carried out on both eyes at pre-laser and day 14 post-laser and day 29 post laser (2 weeks after treatment).
Animals were sacrificed on the proposed day (day 30) and the upper body was perfused through the aorta (descending clamped) with half-strength Karnovsky fixative. The eyes were removed, postfixes for 2 to 3 days in half-strength Karnovsky fixative, and then stored in formalin until processed. Strips of tissue containing 1 or 2 lesion sites were embedded in plastic. Sections 2 μm thick were taken at 30-μm steps through the middle of each lesion. […] This section was then evaluated by an observer masked to the treatment condition.
A tissue proliferation score was calculated for each lesion based on 3 criteria: the size of the spindle cell proliferative lesion, the extent of new blood vessel proliferation in the subretinal space, and the elevation of the retina above the choriocapillaris. […]

Substance | tolerability / intraocular inflammation | tolerability / intraocular inflammation (listed as SIPRAD-0276) | lesion / laser spot area, thickness and volume (post treatment vs pre-treatment)
ranibizumab [Lucentis] | well tolerated | – | –
TPHTHNRTPE [Angio-3, Thr Pro His Thr His Asn Arg Thr Pro Glu] | well tolerated | well tolerated via IVT and no signs of inflammation found | –
Eylea: Eylea (anti-VEGF), positive control; clinical compound [reference compound] | well tolerated | – | significantly reduced after treatment as compared to pre-treatment
